# Source: article PMC4336329 (PLoS ONE, 2015)
# About 14,000 (4.5%) of roughly 310,000 compounds showed an effect of 50% or more. The effect is printed as a negative number. The list shows a part of the results.
# Target: human ether-à-go-go-related gene (hERG) potassium channel (human, UniProt Q12809)
# Assay: primary screen, population patch clamp on CHO cells stably expressing hERG
# 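Note: peak tail current of the secondary pulse compared with the same well before compound.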
# Sequence of human ether-à-go-go-related gene (hERG) potassium channel (Q12809 whole entry, looked up): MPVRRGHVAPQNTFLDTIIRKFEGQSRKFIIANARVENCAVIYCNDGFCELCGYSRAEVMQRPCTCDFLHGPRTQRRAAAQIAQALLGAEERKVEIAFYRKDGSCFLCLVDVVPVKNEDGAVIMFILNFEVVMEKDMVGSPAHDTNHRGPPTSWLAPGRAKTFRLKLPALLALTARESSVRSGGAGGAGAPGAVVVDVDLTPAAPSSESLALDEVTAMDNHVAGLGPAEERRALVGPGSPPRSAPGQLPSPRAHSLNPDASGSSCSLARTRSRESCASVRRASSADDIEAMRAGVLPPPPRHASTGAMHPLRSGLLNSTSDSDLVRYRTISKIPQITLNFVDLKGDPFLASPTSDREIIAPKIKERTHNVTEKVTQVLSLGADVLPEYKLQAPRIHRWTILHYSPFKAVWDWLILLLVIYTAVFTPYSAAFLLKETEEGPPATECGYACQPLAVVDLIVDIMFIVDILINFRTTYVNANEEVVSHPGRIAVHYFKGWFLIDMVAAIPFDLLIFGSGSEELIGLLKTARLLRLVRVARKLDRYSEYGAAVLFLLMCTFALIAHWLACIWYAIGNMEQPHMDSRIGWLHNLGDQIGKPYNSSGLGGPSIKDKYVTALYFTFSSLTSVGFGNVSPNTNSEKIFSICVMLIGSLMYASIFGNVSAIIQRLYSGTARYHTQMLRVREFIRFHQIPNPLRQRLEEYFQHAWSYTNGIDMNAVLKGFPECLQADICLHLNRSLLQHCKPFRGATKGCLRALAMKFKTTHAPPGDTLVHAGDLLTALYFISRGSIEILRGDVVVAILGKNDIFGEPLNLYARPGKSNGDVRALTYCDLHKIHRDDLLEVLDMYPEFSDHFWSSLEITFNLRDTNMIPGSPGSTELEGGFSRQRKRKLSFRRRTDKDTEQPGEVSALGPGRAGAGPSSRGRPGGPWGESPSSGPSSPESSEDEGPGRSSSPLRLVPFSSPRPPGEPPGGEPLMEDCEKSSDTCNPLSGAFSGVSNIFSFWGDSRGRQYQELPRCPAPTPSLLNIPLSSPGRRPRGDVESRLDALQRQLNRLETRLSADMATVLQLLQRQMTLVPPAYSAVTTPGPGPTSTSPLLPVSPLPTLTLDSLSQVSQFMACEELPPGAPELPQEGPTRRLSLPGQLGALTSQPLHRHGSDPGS
row,SMILES,"hERG current change (%, negative = inhibition) at 10uM"
1,CC/C(O)=C1\C(=O)CC(c2ccccc2)CC1=NC(C)C (centres unmarked),-5.84%
2,COc1ccc(NC(=O)Nc2nnc(CC(=O)NCc3ccccc3)s2)cc1,11.3%
3,CCCC[C@@H]1CCCO[C@@](C(=O)NCc2ccc(C)o2)(C(F)(F)F)C1,-6.8%
4,COc1ccccc1CNc1ncnc2cc(OC)c(OC)cc12,-32%
5,Cc1ccc(NNS(=O)(=O)c2ccc(C)cc2)cc1,1.37%
6,CCOc1ccccc1C(=O)Nc1ccc2nc3n(c(=O)c2c1)CCCCC3,1.73%
7,O=C(NCc1ccc(F)cc1)c1cc2c(cc1Cl)N1CCCCCC1=NS2(=O)=O,-0.409%
8,COc1ccc(Cl)cc1NC(=O)CN(C)C(=O)c1cccc(-n2cnnn2)c1,-53.6%
9,Cc1[nH]n(-c2ccc([N+](=O)[O-])cc2)c(=O)c1C=NCCN1CCN(C(=O)C(C)C)CC1,-64.2%
10,CCC1(CC)Cc2ccccc2-c2nc(NCCCO)[nH]c(=O)c21,7.05%
11,COc1ccc(Br)cc1CN1CCN(S(=O)(=O)Cc2ccccc2)CC1,-5.27%
12,CCOc1ccc(C2c3c(oc4cc(C)c(C)cc4c3=O)C(=O)N2CCCN2CCOCC2)cc1 (centres unmarked),-21.6%
13,CCc1cc(C(=O)NNC(=S)Nc2cc(C)ccc2C)cs1,6.73%
14,CCCC1=[N+](CC)CCn2c(C)ccc21.[Br-],10.9%
15,C=CCNc1ncnc2c1cnn2-c1ccc(Cl)cc1,9.53%
16,Cc1onc(-c2ccccc2)c1C(=O)N/N=C/c1cccs1,0.544%
17,Cc1ccccc1NC(=O)CCC(=O)N/N=C/c1ccncc1,23.2%
18,Cc1cnc(C(=O)OC(C)C(=O)Nc2ccc3c(c2)OCCO3)cn1 (centres unmarked),0.452%
19,Cc1cc2c(Nc3ccc(C(=O)O)cc3)ncnc2s1.Cl,25.1%
20,Cc1ccc(OCCNC(=O)c2ccc3c(c2)OCO3)cc1,2.05%
21,COc1ccc(S(=O)(=O)N2CC3CC(C2)c2cccc(=O)n2C3)cc1 (centres unmarked),0.671%
22,Cc1ccc(C)c(NC(=S)NCc2ccc3[nH]c4c(c3c2)CCCC4)c1,7.84%
23,CN1C2CCC1/C(=C/c1ccccn1)C(=O)/C2=C\c1ccccn1,-24.4%

row,SMILES,"hERG current change (%, negative = inhibition) at 10uM"
1,CC(C)Cn1c(SCC(=O)N2CC(=O)Nc3ccccc32)nc2ccccc21,4.27%
2,CCCCN(Cc1cc2ccccc2[nH]c1=O)C(=O)c1ccccn1,13.5%
3,Cc1c(CC(=O)N2CCN(C(=O)C3COc4ccccc4O3)CC2)c(=O)oc2c(O)c(O)ccc12 (centres unmarked),-0.208%
4,CC(=O)Oc1ccc(C(=O)[C@H]2[C@H]3C(=O)N(c4ccc(C)cc4)C(=O)[C@H]3[C@@H]3C=CC=NN32)cc1,10.7%
5,COc1ccc(C(=O)NCC(=O)NCCc2c[nH]c3ccccc23)cc1OC,-3.02%
6,O=C(NCCOc1ccccc1)C(=O)c1c[nH]c2ccccc12,-2.05%
7,Cc1cc(=O)oc2c(C)c3occc3cc12,12.5%
8,O=C(NC(Cc1c[nH]c2ccccc12)C(=O)O)c1cccs1 (centres unmarked),18.6%
9,CCOC(=O)C1C(=O)CC(C)(O)C(C(=O)OCC)C1c1cc(Br)ccc1OC (centres unmarked),7.34%
10,Cc1ccc(S(=O)(=O)CCC(=O)OCC(=O)NCC(=O)Nc2cccc(C)c2C)cc1,6.9%
11,Cc1ccc(NC(=O)c2ccc3nc[nH]c3c2)c(O)c1,-2.67%
12,O=C1CC(c2ccccc2)C(=O)N1c1cccc(O)c1 (centres unmarked),-19.3%
13,Cc1ccc(NC(=S)NCc2ccc3c(c2)OCO3)cc1,2.97%
14,FC(F)(F)c1cc(-c2ccco2)nc(-n2cnc3ccccc32)n1,-1.12%
15,CCc1ccc(CN(C)C(C)C(=O)NCc2ccccc2)cc1 (centres unmarked),-23.5%
16,O=C(Nc1nnc(-c2ccc(Cl)s2)o1)C1CCCCC1,5.74%
17,COc1ccc(S(=O)(=O)N2CCC(NC(=O)c3cccc(F)c3)CC2)cc1,15.4%
18,Cc1c(Cl)cccc1NC(=O)NCc1ccc(C)n1C,10%
19,COc1ccc(CN(C)CC(O)COC(c2ccccc2)c2ccccc2)c(OC)c1OC (centres unmarked),-76.7%
20,C=C(C)COc1ccc2c(C)c(C)c(=O)oc2c1OCC(=C)C,7.58%
21,COc1cccc(OC)c1C(=O)NC(=S)Nc1ccc2oc(=O)ccc2c1,6.35%
22,COC(=O)c1sccc1NC(=O)c1cc(OC)cc(OC)c1,-3.2%
23,COc1ccc2[nH]c(=O)c(CN(CCO)C(=O)c3cccs3)cc2c1,-6.12%

row,SMILES,"hERG current change (%, negative = inhibition) at 10uM"
1,COc1ccc(CC(=O)NCC(=O)NCc2cc(=O)n(C)c(=O)n2C)cc1,14.3%
2,CCN=C1S/C(=C\c2cc(Br)c(O)c(OC)c2)C(=O)N1CC,-8.02%
3,CC1(C)C=Cc2c(ccc(-c3coc4cc(O)ccc4c3=O)c2O)O1,-1.86%
4,CN1CCN(CC(=O)N2c3ccccc3Sc3ccccc32)CC1,-13.7%
5,C=CCNC(=O)C(=O)c1c(-c2ccccc2)[nH]c2ccccc12,2.13%
6,CN(CC(=O)Nc1ccc(F)c(F)c1F)C(=O)c1cc(-c2ccncc2)nc2ccccc12,-47.1%
7,COC(=O)c1c(C)oc2ccc(N(C(=O)c3ccncc3)S(=O)(=O)c3ccccc3)cc12,-17.3%
8,CC(=O)NC1(C(F)(F)F)C(=O)Nc2c1c(=O)n(C)c(=O)n2C (centres unmarked),5.62%
9,COc1ccc(CN(C)Cc2nc(Cc3cccc(F)c3)no2)c2cccnc12,-12.5%
10,O=C(CSc1nccc(=O)[nH]1)Nc1ccc(Oc2ccccc2)cc1,-3.01%
11,c1ccc(-c2csc3ncnc(N4CCc5ccccc5C4)c23)cc1,-1.81%
12,CC(=O)NCCNC(=O)c1ccc(Sc2ccccc2)c([N+](=O)[O-])c1,-47.9%
13,CC(Cc1ccccc1)(NC(=O)CN)c1ccccc1.Cl (centres unmarked),13.4%
14,COCCN1C(=O)N[C@@H](CCc2ccccc2)C(C(C)=O)=C1C,1.88%
15,COc1cccc(Nc2nc(N)nc(C(F)(F)F)n2)c1,-8.49%
16,CCc1ccc(-c2csc3nc[nH]c(=O)c23)cc1,3.15%
17,N#Cc1cccc(C#N)c1Oc1ccc(S(=O)(=O)Nc2ccccc2)cc1,-10.5%
18,O=C(Nc1ccc(Nc2ccccc2)cc1)c1ccc(Cl)cc1[N+](=O)[O-],5.6%
19,N#C/C(=C\c1ccc(F)cc1F)S(=O)(=O)c1ccccn1,6.77%
20,Cc1cc(=O)oc(C)c1C(=O)NCCN1CCOCC1,1.31%
21,CCOc1cc(CNCc2cccnc2)cc(Br)c1OCC(N)=O.Cl,7.26%
22,CN(C1CCCCC1)S(=O)(=O)c1ccc(NC(=O)c2ccc(Br)o2)cc1,-0.948%
23,COc1cccc(/C=N/NC(=O)CNC(=O)COc2ccccc2)c1O,-7.17%

row,SMILES,"hERG current change (%, negative = inhibition) at 10uM"
1,COc1cc(/C=C2\SC(N)=NC2=O)cc(Cl)c1O,20.2%
2,CCC(=O)NC(=S)Nc1ccc(N2CCOCC2)cc1,-2.62%
3,Clc1ccc(C2[C@H]3CN(CC4CCCCC4)[C@H](c4ccccc4)C34CC2(c2cccnc2)C4)cn1 (some centres unmarked),-26.1%
4,CS(=O)(=O)N1CCc2cc(S(=O)(=O)N3CCN(Cc4ccc5c(c4)OCO5)CC3)ccc21,0.728%
5,Cc1cc(C)cc(OCC(O)CN2C(=O)NC(C)(C)C2=O)c1 (centres unmarked),26.5%
6,Cc1sc(N)nc1-c1ccccc1,3.49%
7,Nc1[nH]ncc1C(=O)Nc1cccc(C(F)(F)F)c1,-12.7%
8,COc1ccccc1C(=O)NCC1(c2ccccc2)CCCC1,1.65%
9,CCc1noc(C)c1C(=O)N(C)CC(=O)Nc1ccccc1Br,-11.1%
10,O=[N+]([O-])c1cc(/C=N/Nc2nc(N3CCCCC3)nc(N3CCCCC3)n2)ccc1O,11.1%
11,Cc1ccc(CCC(=O)NCc2ccccc2)o1,8.56%
12,CC(C)c1ccc(C2NCc3ccccc3-n3cccc32)cc1.Cl (centres unmarked),2.86%
13,Cc1ccc(-n2c(C)cc(C(=S)N3CCOCC3)c2C)cc1C,-2.75%
14,COc1ccc(CCNC(=O)c2c(N)n(CCN3CCOCC3)c3nc4ccccc4nc23)cc1,-0.58%
15,O=C1CN(C(=O)CSc2nnc3ccccn23)c2ccccc2N1,-2.81%
16,Cc1ccccc1C(=O)Nc1ccc(S(=O)(=O)N2CCN(C)CC2)cc1,4.25%
17,O=C(CN1C(=O)NC(c2ccc(F)cc2)C1=O)Nc1ccc2c(c1)OCCO2 (centres unmarked),4.59%
18,Cc1ccccc1CSCC(=O)NCc1ccco1,-4.96%
19,CSc1ccc(C2=CC(=O)C[C@H](c3ccc(Cl)cc3)C2)cc1,-0.631%
20,CC1(C)C(=O)N(c2ccccc2)C1c1ccccc1O (centres unmarked),-9.23%
